Laboratory results as given in ChEMBL document CHEMBL5308541, “MAIP: An Open-Source Tool to Enrich High-Throughput Screening Output and Identify Novel, Druglike Molecules with Antimalarial Activity” (ACS Med Chem Lett, 2023).
About 540 (0.36%) of roughly 150,000 compounds showed an effect of 50% or more. The list shows a part of the results.

Test system: Plasmodium falciparum
Test: Primary screen in NF54 nanoGlo assay, in single point, at 2uM, 72h; a lower Z score goes with more inhibition
Format: functional, Erythrocyte
Settings: timepoint 72 hour

Row | Compound | % Inhibition [%] | Z score
1 | CCOC1CC(Nc2cccc(C(=O)NCC(=O)NC)c2)C12CCC2 (stereo not given) | -5 | 1.05
2 | O=C(Cc1ccc(N2CCC(NCCCc3ccncc3)CC2)cc1)NCCc1cccc(F)c1 | -18 | 3.49
3 | O[C@H]1CCCN(c2ccnc(NCC3(N4CCOCC4)CCCCC3)n2)C1 | -8 | 1.36
4 | CCc1c[nH]c(=O)c(C(=O)Nc2ccc3c(c2)CN(CC(N)=O)CC3)c1 | -6 | 1.32
5 | CC(C)CN1CCC(N2CCN(c3cc(N)nc(N)n3)CC2)CC1 | -14 | 2.38
6 | Cc1cc(Nc2nccc(N3CCc4ccccc4C3)n2)no1 | -15 | 2.21
7 | O=C(CNC(=O)c1ccc(F)cc1)Nc1cccc(Nc2nc3ccccc3s2)c1 | 0 | -0.03
8 | Oc1cc(NCCCN2CCC[C@H](O)C2)ncn1 | -8 | 1.25
9 | Cc1noc(-c2ccnc(NCc3cnn(-c4cccc(F)c4)c3)c2)n1 | -13 | 2.72
10 | O=C(c1ccc2[nH]cnc2c1)N1CCC[C@H](CN2CCCCCC2)C1 | 2 | -0.52
11 | CC(C)Oc1ccccc1-c1ccc(NCCN2CCOCC2)nc1 | -13 | 2.8
12 | NC(=O)CCn1cc(-c2ccc(C(=O)NCCN3CCCCCC3)cc2)cn1 | -7 | 1.36
13 | O[C@@]1(c2c[nH]nn2)CCN(c2ccnc3cc(Cl)ccc23)C1 | 44 | -6.63
14 | Nc1cncc(-c2ccc(C(=O)NCCCN3CCNC(=O)C3)cc2)c1 | 2 | -0.47
15 | NCCCCc1c(-c2cccnc2)[nH]c2c(Cl)cc(Cl)cc12 | 34 | -5.94
16 | OC1CCC(Nc2nccc3occc23)CC1 (stereo not given) | 4 | -0.61
17 | CCn1c(Cn2ccnc2C)nnc1C1CCN(Cc2c[nH]cn2)CC1 | 3 | -0.56
18 | CCc1nc2cc(-c3ccc(C(=O)N4CCC[C@H](OC)C4)cc3)cnc2[nH]1 | 4 | -0.84
19 | OC[C@H](CNCc1cc2ccc(F)cc2[nH]1)c1ccccc1Cl | 41 | -6.28
20 | CNc1nc(N2CCC(N(C)CCN(C)C)CC2)ncc1F | -5 | 0.91
21 | Cc1cc(NCc2c(C)ccc3ncccc23)nc(N)n1 | 3 | -0.51
22 | Cn1ccnc1-c1ccc(NC2COCC2N2CCCC2)nn1 (stereo not given) | -10 | 1.53
23 | COc1cc(N2CCC(CNC(=O)CN3CCCN(C)CC3)CC2)nc(N)n1 | 11 | -1.84
24 | CC(C)N1CCC(Nc2ccccc2N2CCN(C)CC2)CC1 | 0 | -0.05
25 | Cc1ccncc1N(C)C(=O)Cc1ccn(CC(F)(F)F)n1 | -3 | 0.75
26 | COc1cc(NC2COCC2N2CCCCC2)ncn1 (stereo not given) | -13 | 2.66
27 | Cc1ncc(S(N)(=O)=O)cc1-c1nc(C(C)(C)C)no1 | -11 | 2.24
28 | Cc1nsc(NCCCCN2CCOCC2)n1 | -14 | 2.42

Row | Compound | % Inhibition [%] | Z score
29 | Cc1cc(CC(=O)N2C3CCC2CC(Cc2ccccc2)C3)n[nH]1 (stereo not given) | -7 | 1.45
30 | CN(CC1CCN(CCc2ccc(F)cc2)CC1)C(=O)c1ccc2c(c1)OCO2 | -3 | 0.5
31 | Cc1nc(C)c(C)c(N2CC(c3ccccn3)C2)n1 | -2 | 0.38
32 | Cc1nc(-c2ccccn2)nc(NC2CCN(CC(F)F)CC2)c1C | 43 | -9.26
33 | CN(C)C1CCN(CCN[C@H]2CCc3ccc(F)cc32)CC1 | 87 | -15.32
34 | CC(C)CC(=O)N1CCCN(Cc2ccc(-c3ccccn3)cc2)CCCCNC(=O)[C@@H]2C[C@H]1CN2 | 2 | -0.39
35 | CCC1(CC)CN(Cc2conc2Cc2ccccc2)C1 | 3 | -0.44
36 | O=C(NC1CCN(Cc2cc(F)cc(F)c2)CC1)[C@@H]1CC2(CCNCC2)CN1 | 2 | -0.4
37 | O=C(CN1CCCCCCC1)N1CC2CCC1CNC2 (stereo not given) | 6 | -1.24
38 | Cc1[nH]c(CN2CC(O)C(N3CCOCC3)C2)cc1C#N (stereo not given) | 0 | 0.08
39 | CC(NC(=O)OC(C)(C)C)C1COCCC1NC1CCN(c2ccccc2)C1 (stereo not given) | -4 | 0.7
40 | CC(C)(C)OC[C@@H](O)CN1CCN(CCNC(=O)c2ccnc3ccccc23)CC1 | -7 | 1.03
41 | OC[C@H]1CCCN(CCCNc2cnccn2)C1 | -11 | 1.86
42 | COc1ccc2nc(C)nc(NCCCc3nc4cccnc4[nH]3)c2c1 | 0 | 0
43 | C[C@@H](c1ccc(Cc2cnc3c(-c4ccccc4)cnn3c2)cc1)N1CCOCC1 | -11 | 1.65
44 | Cc1cc(N[C@H](c2cccnc2)c2ccc(C)c(C)c2)nc(N)n1 | -9 | 1.33
45 | COc1cc(CS(=O)(=O)N(Cc2cnn(C)c2)C2CC2)sn1 | 2 | -0.43
46 | c1ccc(-c2ncn(C[C@@H](c3ccncc3)N3CCOCC3)c2-c2c[nH]cn2)cc1 | -1 | 0.23
47 | Cc1ccc(OCCN=C(N)NC2CC2)cc1 | -9 | 1.6
48 | CCn1nc(C)c(-c2cccc(C(=O)N(C)Cc3cnc(N)nc3)c2)c1C | -7 | 1.53
49 | CNc1cc(C)nc(N2CCC(N3CCC[C@H](O)C3)CC2)n1 | 2 | -0.33
50 | COc1ccnc(CN2CC[C@H](Nc3ncccn3)C2)c1OC | -5 | 0.75
51 | Cc1nc(N2CCC(NC(=O)c3ccc4nc(C)[nH]c4c3)CC2)cc(C(F)(F)F)n1 | 4 | -0.73
52 | Cc1cn2nc(N[C@H]3CCN(c4cc(-c5cccnc5)nc(C)n4)C3)ccc2n1 | -7 | 1.56
53 | Fc1ccccc1CN1CCC[C@H](NCc2cc(CN3CCCC3)cs2)C1 | -3 | 0.45
54 | COc1cccc(CCC(=O)N[C@@H](C)c2ncc(C(=O)O)s2)c1 | 7 | -1.17
55 | O=C(c1cccc(-c2cnc3ccccc3c2)c1)N1CCN(CCCO)CC1 | -7 | 1.28
